# Data: PubChem BioAssay (Tox21)
# Values joined by “and” are separate entries in the source; they are usually repeats but may differ in a detail not shown here. Equal entries are not always repeated. Active and inactive are the calls of the source. Unless noted, the call rests on the fitted dose curve; in most records, active means well fitted curve in the direction sought with a large enough effect in the repeat runs; inconclusive means weak or mixed curves; inactive means no such curve, though single readings can be large; an effect the other way counts as inactive or inconclusive.
# Legend:
# [1] = qHTS assay to identify small molecule antagonists of the glucocorticoid receptor (GR) signaling pathway - cell viability counter screen (AID 720693); conditions: GR-bla HeLa viability, CellTiter-Glo luminescence, 18 h, with 5 nM dexamethasone present; viability change, negative = cytotoxic: at 58.5 µM (top of the series) unless noted; further: nearly all actives have a fitted effect of over 55% in size; further: potency means the concentration at half of the fitted maximal effect
# [2] = qHTS assay for identifying genotoxic compounds that show differential cytotoxicity against isogenic chicken DT40 cell lines with known DNA damage response pathways - wild type cell line (AID 743012); conditions: DT40 wild type chicken cells viability, CellTiter-Glo, 40 h; activity change, negative = cytotoxicity: at 68.4 µM (top of the series) unless noted; further: potency means the concentration at half of the fitted maximal effect; nearly all actives have a fitted effect of over 60% in size
# Method in brief: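 Wild type DT40, 300 cells/well, ~0.5 h settle at 37 C/5% CO2; compounds in DMSO added by pintool; 40 h at 37 C/5% CO2; CellTiter-Glo, 30 min RT; luminescence.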
# [3] = qHTS assay for identifying genotoxic compounds that show differential cytotoxicity against isogenic chicken DT40 cell lines with known DNA damage response pathways - Rev3 mutant cell line (AID 743014); conditions: chicken DT40 Rev3-/- viability, CellTiter-Glo, 40 h; activity, negative = cytotoxicity: at 68.4 µM (top of the series); further: potency means the concentration at half of the fitted maximal effect; nearly all actives have a fitted effect of over 55% in size
# [4] = qHTS assay to identify small molecule antagonists of the androgen receptor (AR) signaling pathway - cell viability counter screen (AID 743033; further: potency means the concentration at half of the fitted maximal effect; nearly all actives have a fitted effect of over 45% in size); conditions: AR-bla HEK293 viability, CellTiter-Glo luminescence, 16 h; activity change, negative = cytotoxicity: at 58.5 µM (top of the series) unless noted
# [5] = test system: thyroid hormone receptor (rat, GH3 cells); experiment: qHTS assay to identify small molecule agonists of the thyroid receptor (TR) signaling pathway (AID 743066; calls by dose curve; further: on the % scale 0 is the no-effect control and ±100 the full control effect); conditions: GH3.TRE-Luc cells, TR agonist luciferase, 24 h; activation: at 83.9 µM (top of the series) unless noted
# [6] = target: Estrogen receptor (Homo sapiens) (UniProt P03372); experiment: qHTS assay to identify small molecule antagonists of the estrogen receptor alpha (ER-alpha) signaling pathway (AID 743069; active means well fitted curve in the direction sought with a large enough effect in the signal ratio in the repeat runs, not every such curve was filed as active; inconclusive means weak or mixed curves, or effect the other way; inactive means no such curve, though single readings can be large or run the other way; the % refers to the signal ratio; further: potency means the concentration at half of the fitted maximal effect); conditions: HEK293 ER-alpha-UAS-bla, beta-lactamase ratio, antagonist mode; activity, negative = inhibition: at 69.4 µM (top of the series) unless noted
# UniProt P03372, sequence (P03372 whole entry, looked up): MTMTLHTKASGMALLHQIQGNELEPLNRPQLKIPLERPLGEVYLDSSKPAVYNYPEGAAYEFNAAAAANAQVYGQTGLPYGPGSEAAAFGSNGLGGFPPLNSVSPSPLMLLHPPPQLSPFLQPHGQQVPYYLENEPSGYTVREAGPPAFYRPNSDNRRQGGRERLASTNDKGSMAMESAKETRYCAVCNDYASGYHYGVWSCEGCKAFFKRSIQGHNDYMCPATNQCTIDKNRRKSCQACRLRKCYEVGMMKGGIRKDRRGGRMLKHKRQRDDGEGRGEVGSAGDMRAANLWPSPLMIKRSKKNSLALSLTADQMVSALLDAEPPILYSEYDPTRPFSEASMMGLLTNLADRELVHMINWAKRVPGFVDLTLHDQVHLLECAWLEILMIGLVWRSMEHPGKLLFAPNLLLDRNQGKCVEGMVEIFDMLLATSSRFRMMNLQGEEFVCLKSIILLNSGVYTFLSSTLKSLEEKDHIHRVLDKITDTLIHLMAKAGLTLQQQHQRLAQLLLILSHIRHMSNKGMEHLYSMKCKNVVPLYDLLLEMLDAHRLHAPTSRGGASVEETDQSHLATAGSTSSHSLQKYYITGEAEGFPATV
# Method in brief: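 HEK293 cells stably carrying an ER-alpha-UAS-bla beta-lactamase reporter were pre-cultured overnight in 2% charcoal-stripped FBS medium. Test compounds in DMSO were added together with 17beta-estradiol for 18 hr at 37C. Read-out was fluorescence after 2 hr with LiveBLAzer B/G FRET substrate at room temperature.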
# [7] = target: Estrogen receptor (Homo sapiens) (UniProt P03372); experiment: qHTS assay to identify small molecule agonists of the estrogen receptor alpha (ER-alpha) signaling pathway (AID 743075; calls by dose curve; further: potency means the concentration at half of the fitted maximal effect)
# [8] = target: Androgen receptor (Homo sapiens) (UniProt P10275); experiment: qHTS assay to identify small molecule antagonists of the androgen receptor (AR) signaling pathway (AID 743035; active means well fitted inhibition curve with a large enough effect in the signal ratio in the repeat runs, not every such curve was filed as active; inconclusive means weak or mixed curves, or effect the other way; inactive means no such curve, though single readings can be large or run the other way; the % refers to the signal ratio; further: potency means the concentration at half of the fitted maximal effect); conditions: HEK293 AR-UAS-bla, R1881-stimulated, beta-lactamase FRET, 16 h; activity change, negative = inhibition: at 58.5 µM (top of the series) unless noted
# UniProt P10275, sequence (P10275 whole entry, looked up): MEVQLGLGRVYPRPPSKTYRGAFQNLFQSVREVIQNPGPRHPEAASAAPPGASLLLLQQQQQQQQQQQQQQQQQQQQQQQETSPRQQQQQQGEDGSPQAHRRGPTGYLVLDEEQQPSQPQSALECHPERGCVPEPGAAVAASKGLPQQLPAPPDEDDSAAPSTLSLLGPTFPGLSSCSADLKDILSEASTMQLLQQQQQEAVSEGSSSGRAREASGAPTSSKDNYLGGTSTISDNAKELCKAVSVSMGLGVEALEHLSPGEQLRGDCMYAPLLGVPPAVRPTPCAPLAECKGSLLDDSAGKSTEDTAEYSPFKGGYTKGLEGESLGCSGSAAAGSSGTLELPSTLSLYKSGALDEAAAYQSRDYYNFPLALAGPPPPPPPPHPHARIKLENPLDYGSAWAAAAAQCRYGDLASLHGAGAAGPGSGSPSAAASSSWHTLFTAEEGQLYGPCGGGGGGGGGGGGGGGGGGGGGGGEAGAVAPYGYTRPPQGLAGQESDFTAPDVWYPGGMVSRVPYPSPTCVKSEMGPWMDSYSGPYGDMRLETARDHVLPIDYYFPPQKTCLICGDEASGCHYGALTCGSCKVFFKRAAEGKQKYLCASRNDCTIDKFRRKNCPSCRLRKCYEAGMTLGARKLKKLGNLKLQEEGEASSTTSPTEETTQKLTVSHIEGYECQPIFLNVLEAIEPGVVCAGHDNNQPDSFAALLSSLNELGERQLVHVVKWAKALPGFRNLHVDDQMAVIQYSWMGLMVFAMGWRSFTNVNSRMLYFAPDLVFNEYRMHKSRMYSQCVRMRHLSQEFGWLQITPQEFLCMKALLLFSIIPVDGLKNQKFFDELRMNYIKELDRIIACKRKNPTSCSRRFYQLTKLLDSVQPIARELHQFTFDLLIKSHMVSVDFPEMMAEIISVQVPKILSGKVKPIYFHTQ
# Method in brief: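 Fluorescence from a beta-lactamase FRET substrate (LiveBLAzer B/G, 2 h, room temperature) measured inhibition of R1881-stimulated signaling in GeneBLAzer AR-UAS-bla HEK293 cells exposed to compound for 16 h at 37C.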
# [9] = target: Androgen receptor (Homo sapiens) (UniProt P10275); experiment: qHTS assay to identify small molecule agonists of the androgen receptor (AR) signaling pathway (AID 743036; active means well fitted activation curve with a large enough effect in the signal ratio in the repeat runs, with a control signal flat, not every such curve was filed as active; inconclusive means weak or mixed curves, or effect the other way; inactive means no such curve, though single readings can be large or run the other way; the % refers to the signal ratio; further: potency means the concentration at half of the fitted maximal effect; on activation: on the % scale 0 is the no-effect control and ±100 the full control effect); conditions: HEK293 AR-UAS-bla GripTite, beta-lactamase FRET ratio, 16 h; activation: at 62.4 µM (top of the series) unless noted
# Method in brief: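 Cell-based FRET reporter assay: HEK293 line with a UAS-beta-lactamase construct, compounds added in DMSO, 16 h exposure at 37C, then 2 h substrate step at room temperature and fluorescence intensity read.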
# [10] = qHTS assay to identify small molecule antagonists of the estrogen receptor alpha (ER-alpha) signaling pathway - cell viability counter screen (AID 743074; calls by dose curve; further: potency means the concentration at half of the fitted maximal effect; nearly all actives have a fitted effect of over 45% in size)
# [11] = target: Aromatase (Homo sapiens) (UniProt P11511); experiment: qHTS assay to identify aromatase inhibitors (AID 743083); conditions: MCF-7 aro ERE, testosterone-driven ERE luciferase, 24 h; activity, negative = inhibition: at 70.3 µM (top of the series); further: potency means the concentration at half of the fitted maximal effect; nearly all actives have a fitted effect of over 55% in size
# UniProt P11511, sequence (P11511 whole entry, looked up): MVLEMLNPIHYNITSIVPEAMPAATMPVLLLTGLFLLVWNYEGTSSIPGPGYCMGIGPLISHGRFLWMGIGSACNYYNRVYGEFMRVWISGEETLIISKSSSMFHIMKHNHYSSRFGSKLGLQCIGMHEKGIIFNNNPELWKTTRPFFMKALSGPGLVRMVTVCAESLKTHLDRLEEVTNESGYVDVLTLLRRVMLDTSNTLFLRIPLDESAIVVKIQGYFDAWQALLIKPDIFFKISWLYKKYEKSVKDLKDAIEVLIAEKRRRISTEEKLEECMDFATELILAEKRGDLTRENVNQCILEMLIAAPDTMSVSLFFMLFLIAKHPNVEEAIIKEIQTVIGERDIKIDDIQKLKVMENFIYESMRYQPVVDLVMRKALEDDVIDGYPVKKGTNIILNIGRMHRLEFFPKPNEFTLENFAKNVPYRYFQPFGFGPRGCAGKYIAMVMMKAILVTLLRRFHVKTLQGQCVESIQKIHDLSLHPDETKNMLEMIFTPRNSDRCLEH
# [12] = qHTS assay for identifying genotoxic compounds that show differential cytotoxicity against isogenic chicken DT40 cell lines with known DNA damage response pathways - Rad54/Ku70 mutant cell line (AID 743015); conditions: DT40 Rad54/Ku70 mutant viability, CellTiter-Glo, 40 h; activity change, negative = cytotoxicity: at 66.8 µM (top of the series); further: potency means the concentration at half of the fitted maximal effect; nearly all actives have a fitted effect of over 60% in size
# [13] = target: Estrogen receptor (Homo sapiens) (UniProt P03372); experiment: qHTS assay to identify small molecule agonists of the estrogen receptor alpha (ER-alpha) signaling pathway using the BG1 cell line (AID 743079); conditions: BG1Luc4E2 cells, ERE-luciferase agonist, 22 h; activation: at 70.3 µM (top of the series) unless noted; further: nearly all actives have a fitted effect of over 20% in size; further: potency means the concentration at half of the fitted maximal effect; on activation: on the % scale 0 is the no-effect control and ±100 the full control effect
# [14] = qHTS assay to identify small molecule antagonists of the estrogen receptor alpha (ER-alpha) signaling pathway using the BG1 cell line (AID 743080; calls by dose curve;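 further: BG1 cells stimulated with 17beta-estradiol alongside compound; nearly all actives have a fitted effect of over 25% in size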; further: potency means the concentration at half of the fitted maximal effect; on activity change, negative = inhibition: on the % scale 0 is the no-effect control and ±100 the full control effect); conditions: BG1Luc4E2 ERE-luciferase antagonist mode, luminescence; activity change, negative = inhibition: at 70.3 µM (top of the series) unless noted
# Method in brief: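 BG1Luc4E2, endogenous ER-alpha, 4xERE-luc; 5 d charcoal-stripped FBS, phenol red free; 24 h plating; cpd + 17beta-estradiol 21.5 h, 37 C/5% CO2; CellTiter-Fluor viability 30 min, then ONE-Glo luciferase 30 min RT.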
# [15] = qHTS assay to identify small molecule antagonists of the thyroid receptor (TR) signaling pathway - cell viability counter screen (AID 743064); conditions: GH3.TRE-Luc viability, CellTiter-Fluor, 24 h; activity change, negative = cytotoxic: at 70.3 µM (top of the series) unless noted; further: potency means the concentration at half of the fitted maximal effect; nearly all actives have a fitted effect of over 50% in size
# Method in brief: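 In rat pituitary GH3.TRE-Luc reporter cells co-exposed to compound and 1 nM T3 for 23.5 h, cytotoxicity was assessed with CellTiter-Fluor in the same wells, read by fluorescence.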
# [16] = target: Androgen receptor (Homo sapiens) (UniProt P10275); experiment: qHTS assay to identify small molecule antagonists of the androgen receptor (AR) signaling pathway using the MDA cell line (AID 743042; further: potency means the concentration at half of the fitted maximal effect; nearly all actives have a fitted effect of over 55% in size)
# Method in brief: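 MDA-kb2 cells (human breast carcinoma, stably carrying an MMTV-luciferase reporter responsive to AR and GR) were plated at 3,000 cells/well and preincubated 5 hr at 37C, then given compound plus R1881 agonist for 16 h. ONE-Glo luminescence was read.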
# [17] = qHTS assay to identify small molecule antagonists of the androgen receptor (AR) signaling pathway using the MDA cell line - cell viability counter screen (AID 743041; further: potency means the concentration at half of the fitted maximal effect; nearly all actives have a fitted effect of over 45% in size); conditions: MDA-kb2 viability, CellTiter-Fluor, 16 h, cells co-treated with R1881 androgen agonist; viability change, negative = cytotoxic: at 70.3 µM (top of the series) unless noted
# Method in brief: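 MDA-kb2 AR-luc human breast carcinoma cells (MMTV-luciferase, AR/GR responsive) were treated with compounds plus R1881 agonist for 16 h at 37 °C. Viability was read as CellTiter-Fluor fluorescence in the same wells as the reporter assay.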
# [18] = qHTS assay to identify small molecule antagonists of the estrogen receptor alpha (ER-alpha) signaling pathway using the BG1 cell line - cell viability counter screen (AID 743081); conditions: BG1Luc4E2 viability, CellTiter-Fluor, 22 h; activity change, negative = cytotoxicity: at 70.3 µM (top of the series) unless noted;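 further: compound given together with 17beta-estradiol as the ER stimulus; potency means the concentration at half of the fitted maximal effect; nearly all actives have a fitted effect of over 45% in size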
# Tags describe the fitted curve by direction and shape or compound fluorescence and quenching.
compound,measurement,setting,value
CCc1nn(C2CCCCC2)c2cc(C3(C#N)CCC(C(=O)O)CC3)ccc12 (centres undefined),Potency,[1],"inconclusive: 49 µM [cytotoxic, partial curve]"
same,Potency,[2],"inconclusive: 77 µM [cytotoxic, single point]"
same,Potency,[3],"inconclusive: 61.1 µM [cytotoxic, single point]"
same,Potency,[4],"inconclusive: 24.5 µM [cytotoxic, partial curve, poor fit]"
same,activation,[5],inconclusive: -7.53% [phenotype inactive]
same,Potency,[6],active: 13.8 µM [inconclusive]
same,Potency,[7],inconclusive: 43.6 µM
O=c1[nH]cnc2c1ncn2[C@@H]1O[C@H](CO)[C@@H](O)[C@H]1O,Potency,[1],"inconclusive: 9.52 µM [rising, partial curve]"
same,Potency,[2],"inconclusive: 23.7 µM [rising, partial curve, poor fit]"
Nc1ncn([C@@H]2O[C@H](CO)[C@@H](O)[C@H]2O)c(=O)n1,Potency,[1],"inconclusive: 26.8 µM [cytotoxic, partial curve, poor fit] and inconclusive: 38.9 µM [cytotoxic, partial curve]"
same,Potency,[2],active: 1.88 µM and active: 1.54 µM
same,Potency,[3],active: 1.88 µM and active: 1.22 µM
same,Potency,[4],"inconclusive: 4.25 µM [cytotoxic, full curve] and inconclusive: 1.74 µM [cytotoxic, full curve]"
same,Potency,[8],active: 3.38 µM and active: 1.1 µM
same,Potency,[9],inactive
same,Potency,[10],"inconclusive: 15.5 µM [cytotoxic, partial curve, poor fit]"
same,Potency,[11],active: 13.3 µM and active: 8.63 µM
C[C@]12CC[C@H]3[C@@H](CCC4=CC(=O)CC[C@@]43C)[C@@H]1CC[C@@H]2C(=O)CO,Potency,[1],"inconclusive: 9.1 µM [cytotoxic, partial curve] and inconclusive: 2.75 µM [cytotoxic, full curve]"
same,Potency,[2],"inconclusive: 12.7 µM [cytotoxic, partial curve, poor fit]"
same,Potency,[3],"inconclusive: 5.07 µM [cytotoxic, partial curve, poor fit]"
same,Potency,[12],"inconclusive: 14.3 µM [cytotoxic, single point]"
same,Potency,[4],"inconclusive: 38.9 µM [cytotoxic, partial curve, poor fit]"
same,Potency,[6],"inconclusive: 4.06 µM [activator, partial curve, poor fit] and inconclusive: 24.5 µM [fluorescent, partial curve, poor fit]"
same,Potency,[13],"inconclusive: 3.59 µM [activator, partial curve, poor fit] and active: 7.7 µM"
same,"activity change, negative = inhibition",[14],inconclusive: -17.8%
CCCCCCCCCCCCCCCCCCOS(=O)(=O)O,Potency,[1],"inconclusive: 61.6 µM [cytotoxic, single point]"
same,Potency,[2],inconclusive: 27.3 µM [cytotoxic]
same,Potency,[3],"inconclusive: 27.3 µM [cytotoxic, single point]"
same,Potency,[15],"inconclusive: 77 µM [cytotoxic, single point]"
same,Potency,[6],"inconclusive: 49 µM [inhibitor, partial curve]"
same,Potency,[13],inactive
same,Potency,[11],"inconclusive: 61.1 µM [inhibitor, single point]"
Cc1c(C(=O)O)cccc1[N+](=O)[O-],Potency,[1],"inconclusive: 0.498 µM [rising, single point]"
same,Potency,[2],active: 62.1 µM
same,Potency,[3],"inconclusive: 69.7 µM [cytotoxic, single point]"
same,Potency,[12],"inconclusive: 78.2 µM [cytotoxic, partial curve, poor fit]"
same,Potency,[4],"inconclusive: 55.9 µM [cytotoxic, single point]"
same,Potency,[16],"inconclusive: 62.1 µM [inhibitor, partial curve, poor fit]"
C=CCON/C(CCC)=C1\C(=O)CC(C)(C)C(C(=O)OC)=C1O,Potency,[1],inactive
same,Potency,[2],"inconclusive: 4.8 µM [rising, full curve, poor fit]"
C=CC(=O)Nc1cc2c(Nc3ccc(F)c(Cl)c3)ncnc2cc1OCCCN1CCOCC1,Potency,[1],inconclusive: 10.7 µM [cytotoxic]
same,Potency,[2],active: 5.31 µM
same,Potency,[3],active: 8.41 µM
same,Potency,[8],"inconclusive: 3.79 µM [falling, full curve]"
same,Potency,[9],"inconclusive: 7.56 µM [activator, partial curve]"
same,Potency,[17],"inconclusive: 0.75 µM [cytotoxic, full curve]"
same,Potency,[16],"inconclusive: 5.31 µM [inhibitor, full curve, poor fit]"
same,Potency,[15],active: 5.31 µM
same,Potency,[6],"inconclusive: 3.79 µM [cytotoxic, full curve]"
same,Potency,[10],"inconclusive: 0.952 µM [rising, full curve, poor fit]"
same,Potency,[7],active: 23.9 µM [inconclusive]
same,Potency,[13],active: 29.8 µM
same,Potency,[14],"inconclusive: 23.7 µM [rising, partial curve]"
same,Potency,[18],"inconclusive: 13.3 µM [cytotoxic, partial curve]"
